Reference: PubChem BioAssay AID2147 (National Center for Advancing Translational Sciences (NCATS), 2009)
Among all 230,000 compounds or so, about 3,600 (1.6%) were called active. Inconclusive results, whose numbers are uncertain, are shown with a selection of clear calls. The call rests on the fitted dose curve; in most records, active means well fitted inhibition curve with a large enough effect (not every such curve was filed as active); inconclusive means small, poorly fitted or top-dose-only effect, or another doubt; inactive means no such curve, though single readings can be large or run the other way. A potency beside an inconclusive call is a rough fit, not a confirmed value.
Further: nearly all actives have a fitted effect of over 50% in size.
Potency means the concentration at half of the fitted maximal effect; tags describe the fitted curve by direction and shape.

These molecules were tested against Lysine-specific demethylase 4E (Homo sapiens) (UniProt B2RXH2) (assay: qHTS Assay for Inhibitors of Human Jumonji Domain Containing 2E (JMJD2E)). Conditions: JMJD2E catalytic domain, FDH-coupled NADH fluorescence (FDH is formaldehyde dehydrogenase); series mostly up to 57.1 µM.
UniProt B2RXH2, sequence (B2RXH2 whole entry, looked up, the tested form may be a part): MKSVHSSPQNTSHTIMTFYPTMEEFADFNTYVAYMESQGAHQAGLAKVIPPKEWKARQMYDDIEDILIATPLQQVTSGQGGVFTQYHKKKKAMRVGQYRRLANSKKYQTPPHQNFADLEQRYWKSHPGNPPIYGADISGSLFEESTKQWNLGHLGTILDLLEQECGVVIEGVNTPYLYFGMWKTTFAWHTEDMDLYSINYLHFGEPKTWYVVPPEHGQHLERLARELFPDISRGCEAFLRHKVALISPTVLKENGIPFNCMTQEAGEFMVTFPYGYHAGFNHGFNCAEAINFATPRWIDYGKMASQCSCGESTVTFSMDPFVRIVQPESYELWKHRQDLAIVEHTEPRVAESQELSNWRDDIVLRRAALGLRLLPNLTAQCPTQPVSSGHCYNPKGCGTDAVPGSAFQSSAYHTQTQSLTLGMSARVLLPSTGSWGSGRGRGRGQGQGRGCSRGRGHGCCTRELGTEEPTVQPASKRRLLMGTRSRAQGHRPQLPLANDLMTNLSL
`COc1ccc(O)c(C(=O)CC(=O)c2ccc(F)cc2)c1` was tested, and the Potency was inconclusive: 31.6 µM [inhibitor, single point].
In the case of `Cc1cc(=O)[nH]c(NN=C(CC(C)C)CC(C)C)n1`, the Potency is reported as inconclusive: 25.1 µM [inhibitor, single point].
With `CCN(CC)S(=O)(=O)c1cc(C(=O)OCC(=O)Nc2ccc(-c3nc4ccc(C)cc4s3)cc2)ccc1F` the Potency was inconclusive: 25.1 µM [inhibitor, partial curve].
For `Clc1ccc(-c2nnc3n2CCCC3)cc1Cl`, the Potency was “inactive”.
In the case of `COc1ccc(NC(=S)Nc2cccc(C(F)(F)F)c2)c(C)c1`, the Potency is reported as “inactive”.
With `Cc1ccccc1N1C(=O)CC(Sc2nnc(-c3ccccc3)o2)C1=O` (stereo not given) the Potency was “inactive”.
In the case of `CCc1ccc(C(=O)NNC(=O)OC)cc1`, the Potency is reported as “inactive”.
For `Cc1ccc(O)c(C(=O)c2cnn(C(=O)COc3ccccc3C#N)c2)c1`, the Potency was “inactive”.
In the case of `Cc1ccc(N)cc1-n1c(C)ccc1C`, the Potency is reported as inconclusive: 28.2 µM [inhibitor, partial curve].
`Cc1sc(NC(=O)c2ccccc2F)c(CN2CCCCC2)c1C` was tested, and the Potency was inconclusive: 28.2 µM [inhibitor, single point].
For `COc1ccc(OC)c(N=c2ssnc2Cl)c1`, the Potency was active: 12.6 µM.
In the case of `C[C@H]1CC[C@H]2C(=O)N3[C@H](c4ccccc4Br)[C@@H](C)CC[C@H]3C(=O)N2[C@@H]1c1ccccc1Br`, the Potency is reported as “inactive”.
With `COC(=O)[C@@]1(Cc2ccc(OC)cc2)[C@H]2c3cc(C(=O)N(C)C)n(Cc4nc5ccccc5[nH]4)c3C[C@H]2CN1C(=O)c1ccccc1` the Potency was inconclusive: 35.5 µM [inhibitor, single point].
In the case of `CCc1sc(C(=O)Nc2cc(Cl)ccc2N2CCCCC2)cc1C`, the Potency is reported as inconclusive: 35.5 µM [inhibitor, single point].
With `CCOC(=O)c1sc(NC(=O)CSc2nncn2C)nc1C` the Potency was “inactive”.
For `Cc1cc(F)ccc1S(=O)(=O)Nc1ccccc1C(=O)Nc1ccccc1-c1nc2ccccc2[nH]1`, the Potency was inconclusive: 31.6 µM [inhibitor, partial curve].
`COc1cccc(NC(=S)Nc2cc(C(=O)O)ccc2N2CC3CC(C2)c2cccc(=O)n2C3)c1` (stereo not given) was tested, and the Potency was “inactive”.
`N#CCSc1nc(-c2ccccc2)c2cc(Cl)ccc2n1` was tested, and the Potency was inconclusive: 22.4 µM [inhibitor, partial curve].
`COC(=O)c1ccccc1NC(=O)CN(C1CCCCC1)S(C)(=O)=O` was tested, and the Potency was inconclusive: 39.8 µM [inhibitor, single point].
With `COc1ccc(Nc2nc(N3CCCCC3)nc3ccccc23)c(OC)c1` the Potency was inconclusive: 39.8 µM [inhibitor, single point].
With `CC1CC2=C(NC(=S)NC2c2cccc(F)c2)/C(=C/c2cccc(F)c2)C1` (stereo not given) the Potency was inconclusive: 28.2 µM [inhibitor, partial curve, poor fit].
For `COc1cc2c(cc1OC)-c1nnc(-c3ccco3)n1C1(CCCC1)C2`, the Potency was inconclusive: 28.2 µM [inhibitor, partial curve].
With `CCOC(=O)c1sc(-c2ccc(OC)cc2)cc1NC(C)=O` the Potency was inconclusive: 28.2 µM [inhibitor, partial curve].
With `Cc1cc(C)n2nc[n+](C)c2n1` the Potency was “inactive”.
In the case of `Cc1cccc(OCc2nnc(SCC(=O)Nc3nccs3)o2)c1`, the Potency is reported as inconclusive: 25.1 µM [inhibitor, single point].
For `Cc1c(NC(=S)N/N=C/c2ccc([N+](=O)[O-])cc2O)c(=O)n(-c2ccccc2)n1C`, the Potency was active: 10 µM.
In the case of `COc1cccc(-c2nc(CS(=O)(=O)CC(=O)NCc3ccccc3)c(C)o2)c1`, the Potency is reported as inconclusive: 31.6 µM [inhibitor, single point].
For `CCOC(=O)c1cnc2nc(C)nn2c1N`, the Potency was “inactive”.
`Cc1cc(/C=C2\C(=N)N3N=C(CC(=O)N4CCOCC4)SC3=NC2=O)c(C)n1Cc1ccccc1` was tested, and the Potency was inconclusive: 35.5 µM [inhibitor, single point].
For `O=C(NC12CC3CC(CC(C3)C1)C2)c1cc2nc(-c3ccco3)cc(C(F)(F)F)n2n1`, the Potency was inconclusive: 25.1 µM [inhibitor, partial curve].
For `CN1/C(=C\C=N\NC(=O)c2ccccc2Br)C(C)(C)c2ccccc21`, the Potency was inconclusive: 2.82 µM [inhibitor, partial curve].
With `C=CCOc1ccc2c(CC)cc(=O)oc2c1C` the Potency was inconclusive: 22.4 µM [inhibitor, partial curve].
`CCCCn1nc2cc(C(=O)NCCCCc3ccccc3)ccc2c1OCC` was tested, and the Potency was inconclusive: 31.6 µM [inhibitor, partial curve].
`CCN(CC)CCOc1ccc2c(c1)C(=NNC(=O)c1ccccn1)c1cc(OCCN(CC)CC)ccc1-2` was tested, and the Potency was inconclusive: 22.4 µM [inhibitor, partial curve].
In the case of `Cc1n[nH]c(=S)n(/N=C/c2cccc([N+](=O)[O-])c2)c1=O`, the Potency is reported as “inactive”.
For `CC(Oc1ccccc1)c1ccnc2nc(N3CCOCC3)nn12` (stereo not given), the Potency was inconclusive: 31.6 µM [inhibitor, partial curve].
`CC(C)NC(=O)c1ccc2c3n(nc2c1)-c1ccc(Cl)cc1CO3` was tested, and the Potency was inconclusive: 39.8 µM [inhibitor, single point].
With `CCCCC(=O)Nc1ccccc1C(=O)OCC(=O)c1ccc2c(c1)OCCO2` the Potency was inconclusive: 31.6 µM [inhibitor, single point].
With `Cc1ccccc1NC(=O)CC1SC(=O)N(c2ccccc2)C1=O` (stereo not given) the Potency was “inactive”.
`COc1ccc(NS(=O)(=O)c2cc(NC(=O)/C=C/c3cccs3)ccc2N2CCOCC2)cc1` was tested, and the Potency was “inactive”.
In the case of `Cc1ccc(S(=O)(=O)c2c(C)cc(-c3ccccc3)[nH]c2=O)cc1`, the Potency is reported as inconclusive: 31.6 µM [inhibitor, partial curve].
`CCOC(=O)c1ccccc1NC(=O)c1ccc2nccnc2c1` was tested, and the Potency was inconclusive: 35.5 µM [inhibitor, single point].
For `Cc1cc(NC(=O)c2cc3ccccc3o2)cc(C)c1OCC(=O)N1CCOCC1`, the Potency was “inactive”.
For `Nc1cc(C(=O)O)c(N)c2c1C(=O)c1ccccc1C2=O`, the Potency was inconclusive: 39.8 µM [inhibitor, single point].
In the case of `CN(C)c1ccc(/C=N/N=C/c2ccccc2O)cc1`, the Potency is reported as “inactive”.
In the case of `O=C(NCc1ccco1)c1c[nH]c2ccc(S(=O)(=O)N3CCOCC3)cc2c1=O`, the Potency is reported as inconclusive: 39.8 µM [inhibitor, single point].
For `Cc1ccc(-c2cc(C)nc3nc(N)nn23)cc1`, the Potency was inconclusive: 31.6 µM [inhibitor, partial curve].
With `CCn1c2ccccc2c2cc(CN3CCN(S(=O)(=O)CC)CC3)ccc21` the Potency was inconclusive: 35.5 µM [inhibitor, single point].
`COc1ccc2[nH]c(=O)c(CN(CC3CCCO3)S(=O)(=O)c3ccccc3)cc2c1` (stereo not given) was tested, and the Potency was inconclusive: 28.2 µM [inhibitor, partial curve].
In the case of `O=S(=O)(Nc1ccccn1)c1ccc(Cl)cc1`, the Potency is reported as inconclusive: 25.1 µM [inhibitor, partial curve].
`N#Cc1c(N(CCO)CCO)nc(N)c2c(N)nc3c(c12)CC(=O)N3Cc1cccs1` was tested, and the Potency was inconclusive: 7.08 µM [inhibitor, partial curve].
For `CCCCn1c(=O)[nH]c(=O)c2c1nc(-c1ccc3ccccc3c1)n2CC`, the Potency was inconclusive: 35.5 µM [inhibitor, partial curve].
`COc1ccc(CCNC(=S)Nc2ccc(OC)cc2)cc1` was tested, and the Potency was “inactive”.
With `CC(=O)n1c2c(c3ccccc31)OC(N)=C(C#N)C2c1cccc(Cl)c1Cl` (stereo not given) the Potency was inconclusive: 39.8 µM [inhibitor, single point].
For `NNC(=O)CN1C(CN2CCOCC2)=Nc2ccc(Br)cc2C1c1ccccc1` (stereo not given), the Potency was “inactive”.
In the case of `Cc1cccn2cc(-c3cc4ccccc4oc3=O)nc12`, the Potency is reported as inconclusive: 39.8 µM [inhibitor, single point].
With `c1ccc2c(c1)ncn2-c1ncnc2sc3c(c12)CCCC3` the Potency was inconclusive: 35.5 µM [inhibitor, single point].
In the case of `COc1cc(-c2nnn(CC(=O)NCc3ccccc3)n2)cc(OC)c1OC`, the Potency is reported as inconclusive: 39.8 µM [inhibitor, single point].
For `Cc1c(Cl)c(=O)oc2cc(OCC(=O)NCc3cccs3)ccc12`, the Potency was inconclusive: 20 µM [inhibitor, partial curve].
`CCOC(=O)CCCN1CC(O)=C(c2nc3ccccc3s2)C1=N` was tested, and the Potency was inconclusive: 25.1 µM [inhibitor, single point].
`Clc1cccc2sc(N3CCN(c4ccccc4)CC3)nc12` was tested, and the Potency was “inactive”.
In the case of `CN1CCC(Oc2ccccc2Sc2ccccc2)CC1`, the Potency is reported as inconclusive: 39.8 µM [inhibitor, single point].
`COc1cc(OC)c(OC)cc1/C=N/NC(=O)CCc1c(C)n[nH]c1C` was tested, and the Potency was inconclusive: 22.4 µM [inhibitor, partial curve].
In the case of `CC(OC(=O)CCc1nc2ccccc2c(=O)[nH]1)C(=O)c1ccc(C(C)(C)C)cc1` (stereo not given), the Potency is reported as “inactive”.
`CCc1ccc(C(=O)/C=C/c2cnn(C)c2C)s1` was tested, and the Potency was inconclusive: 35.5 µM [inhibitor, partial curve].
With `CC1=C(C(=O)OC(C)C)C(c2ccc(N(C)C)cc2)C2=C(CC(C)(C)CC2=O)N1` (stereo not given) the Potency was active: 14.1 µM.
With `Cc1ccc(C(=O)NCC(=O)OC(C)C(=O)Nc2ccc(N(C)C)cc2)cc1C` (stereo not given) the Potency was “inactive”.
In the case of `CN1C(=S)SC(N(O)C(=O)Nc2cccc3ccccc23)C1(C)C` (stereo not given), the Potency is reported as inconclusive: 28.2 µM [inhibitor, partial curve].
For `CNC(=O)CN1C(=O)c2cccc3cccc1c23`, the Potency was inconclusive: 31.6 µM [inhibitor, partial curve].
`O=c1c2cc(N3CCOCC3)ccc2[nH]c(=S)n1CCCN1CCCCCC1` was tested, and the Potency was inconclusive: 28.2 µM [inhibitor, single point].
